Assay results as given in PubChem BioAssay AID485364 (National Center for Advancing Translational Sciences (NCATS), 2010).
The whole screen tested about 360,000 compounds, of which about 11,000 (3.1%) were called active. Inconclusive results, whose numbers are uncertain, are shown with a selection of clear calls. The call rests on the fitted dose curve; in most records, active means well fitted inhibition curve with a large enough effect; inconclusive means small, poorly fitted or top-dose-only effect; inactive means no such curve, though single readings can be large or run the other way. Potencies of inconclusive entries are left out as doubtful fits.

target: Schistosoma mansoni thioredoxin glutathione reductase (TGR) (UniProt Q962Y6); assay: qHTS Assay for the Inhibitors of Schistosoma Mansoni Peroxiredoxins; conditions: purified TGR, DTNB reduction, TNB absorbance 405 nm; activity change, negative = inhibition: at 114 µM (top of the series) unless noted; further: nearly all actives have a fitted effect of over 60% in size
Procedure, shortened: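 First, TGR (20 nM dispensed) and NADPH were mixed with compound. Second, a 15 min room-temperature incubation followed. Third, further NADPH and then DTNB were added to start the reaction. Finally, TNB absorbance was monitored kinetically.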
On the % scale 0 is the no-effect control and ±100 the full control effect; potency means the concentration at half of the fitted maximal effect; tags describe the fitted curve by direction and shape.

Row | Compound | Potency | activity change, negative = inhibition
1 | O=C(O)c1cccc2c1/C(=N/Nc1ccc([N+](=O)[O-])cc1[N+](=O)[O-])c1ccccc1-2 | inconclusive [inhibitor, single point] | –
2 | COc1ccccc1CNCc1cc(OC)c(OC)c(OC)c1 | inconclusive [inhibitor, partial curve] | –
3 | CCc1ccc(C(=O)NC(=S)NCc2cccnc2)cc1 | inconclusive [inhibitor, partial curve] | –
4 | CC1(OC(=O)CCc2ccccc2)C(=O)C=C2C=C(c3ccsc3)OC=C2C1=O (configuration not stated) | inconclusive [inhibitor, partial curve] | –
5 | COc1ccccc1C1CCN(Cc2cccc3ccccc23)CC1 | inconclusive [inhibitor, single point] | –
6 | COc1ccc(C2CCCN2C(=O)Nc2ccccc2)cc1OC (configuration not stated) | inconclusive [inhibitor, full curve, poor fit] | –
7 | O=c1cc(N2CCN(c3ccccc3)CC2)[nH]c(=O)n1-c1ccccc1Cl | inconclusive [inhibitor, full curve] | –
8 | O=C1C(Cl)=C(Nc2ccccc2)C(=O)c2ccccc21 | active: 1 µM | –
9 | C#CCOCCOCCOCCNc1nc(N2CCN(C(=O)[C@H]([C@@H](C)CC)n3cc([C@@H](N)CO)nn3)CC2)nc(N2CCN(C(=O)[C@H]([C@@H](C)CC)n3cc([C@@H](N)CC(C)C)nn3)CC2)n1 | active: 35.5 µM | –
10 | C=C(c1ccccc1)c1ccc(N(C)C)cc1 | inconclusive [inhibitor, partial curve] | –
11 | Cc1ccc(CN2C(=O)SC(Nc3ccc(Cl)cc3)C2=O)cc1 (configuration not stated) | – | inactive: 5.22%
12 | COc1ccccc1/C=C/C(=O)/C=C/c1ccccc1O | active: 20 µM | –
13 | CCC(=O)Nc1c2c(nn1-c1ccc(C)cc1C)CSC2 | inconclusive [inhibitor, partial curve] | –
14 | COc1ccc(CCNCc2ccccc2)cc1 | inconclusive [inhibitor, partial curve] | –
15 | CCc1ccc(NC(=O)c2cnc3c(-c4ccccc4)c(C)nn3c2C)cc1 | – | inactive: -0.0334%
16 | COc1cc(NC(=O)c2ccco2)c(OC)cc1NC(=O)Nc1cccc(Cl)c1 | inconclusive [inhibitor, single point] | –
17 | COCCNC(=O)c1c(NC(=O)c2cc(=O)c3cc(C)cc(C)c3o2)sc2c1CCCC2 | – | inactive: 0.008%
18 | O=C(/C=C/c1ccc(Br)o1)NC(c1ccccc1)c1ccccc1 | active: 44.7 µM | –
19 | Cc1cccc2sc(NC(=O)Cn3cccc3)nc12 | inconclusive [inhibitor, partial curve] | –

Row | Compound | Potency | activity change, negative = inhibition
20 | COc1ccc(C(=O)COc2cccc(NC(=O)c3ccco3)c2)cc1 | inconclusive [inhibitor, partial curve] | –
21 | CC(=O)O/C(=C\c1cn(C(C)=O)c2ccccc12)C(=O)O | inconclusive [inhibitor, partial curve] | –
22 | O=C(NC(=S)Nc1ccccc1C(=O)O)c1ccc2ccccc2c1 | inconclusive [inhibitor, partial curve] | –
23 | COc1ccccc1C(=O)NCc1ccco1 | inconclusive [inhibitor, single point] | –
24 | Cc1ccc2cc3cc(C(=O)NCCC(C)C)oc3nc2c1 | inconclusive [inhibitor, single point] | –
25 | CCN(CC)CCn1c(=N)n(CC(O)COc2cccc(C)c2)c2ccccc21 (configuration not stated) | – | inactive: 8.83%
26 | CC(=O)OC[C@H]1O[C@@H](O/N=C/C[C@@H]2C=C[C@H](OC(C)=O)[C@@H](COC(C)=O)O2)[C@H](OC(C)=O)[C@@H](OC(C)=O)[C@@H]1OC(C)=O | inconclusive [inhibitor, partial curve] | –
27 | Cc1nn2c(N)csc2nc1=O | inconclusive [inhibitor, partial curve] | –
28 | C=CCn1c(=O)c(C=Nc2cccc([N+](=O)[O-])c2)c(O)n(CCCC)c1=O | inconclusive [inhibitor, full curve] | –
29 | Cc1cc(C)n(-c2nc(NCc3cccnc3)c3c4c(sc3n2)COC(C)(C)C4)n1 | inconclusive [inhibitor, single point] | –
30 | Cc1cccc(C)c1NC(=O)CCCSc1nnc(-c2ccco2)n1-c1ccccc1 | active: 89.1 µM | –
31 | CC(C)(C)c1ccc(OCc2ccc(C(=O)NCc3cccnc3)o2)cc1 | – | inactive: 3.33%
32 | CN(CCS(=O)(=O)c1ccc(Cl)cc1)Cc1cccnc1 | inconclusive [inhibitor, partial curve] | –
33 | CN(CCC1CCOCC1)Cc1nc(Cc2ccccc2F)no1 | inconclusive [inhibitor, single point] | –
34 | O=C(O)C(Cc1ccc(F)cc1)c1ccccc1 (configuration not stated) | inconclusive [inhibitor, single point] | –
35 | O=[N+]([O-])c1ccc(OCCCCN2CCc3ccccc3C2)cc1 | – | inactive: 4.57%
36 | O=C(CCNc1ccc(F)c(Cl)c1)c1ccco1 | active: 8.91 µM | –
37 | Cc1ccc(N2C(=O)N(CC(=O)N3CCCc4ccccc43)C(=O)C2C)cc1 (configuration not stated) | – | inactive: 0.82%
